According to PMC4336329 (PLoS ONE, 2015):
The whole screen tested about 310,000 compounds, of which about 14,000 (4.5%) showed an effect of 50% or more. The effect is printed as a negative number. The list shows a part of the results.

Target: human ether-à-go-go-related gene (hERG) potassium channel (human, UniProt Q12809)
Test: primary screen, population patch clamp on CHO cells stably expressing hERG
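Note: peak tail current of the secondary pulse compared with the same well before compound.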

human ether-à-go-go-related gene (hERG) potassium channel, sequence (Q12809 whole entry, looked up): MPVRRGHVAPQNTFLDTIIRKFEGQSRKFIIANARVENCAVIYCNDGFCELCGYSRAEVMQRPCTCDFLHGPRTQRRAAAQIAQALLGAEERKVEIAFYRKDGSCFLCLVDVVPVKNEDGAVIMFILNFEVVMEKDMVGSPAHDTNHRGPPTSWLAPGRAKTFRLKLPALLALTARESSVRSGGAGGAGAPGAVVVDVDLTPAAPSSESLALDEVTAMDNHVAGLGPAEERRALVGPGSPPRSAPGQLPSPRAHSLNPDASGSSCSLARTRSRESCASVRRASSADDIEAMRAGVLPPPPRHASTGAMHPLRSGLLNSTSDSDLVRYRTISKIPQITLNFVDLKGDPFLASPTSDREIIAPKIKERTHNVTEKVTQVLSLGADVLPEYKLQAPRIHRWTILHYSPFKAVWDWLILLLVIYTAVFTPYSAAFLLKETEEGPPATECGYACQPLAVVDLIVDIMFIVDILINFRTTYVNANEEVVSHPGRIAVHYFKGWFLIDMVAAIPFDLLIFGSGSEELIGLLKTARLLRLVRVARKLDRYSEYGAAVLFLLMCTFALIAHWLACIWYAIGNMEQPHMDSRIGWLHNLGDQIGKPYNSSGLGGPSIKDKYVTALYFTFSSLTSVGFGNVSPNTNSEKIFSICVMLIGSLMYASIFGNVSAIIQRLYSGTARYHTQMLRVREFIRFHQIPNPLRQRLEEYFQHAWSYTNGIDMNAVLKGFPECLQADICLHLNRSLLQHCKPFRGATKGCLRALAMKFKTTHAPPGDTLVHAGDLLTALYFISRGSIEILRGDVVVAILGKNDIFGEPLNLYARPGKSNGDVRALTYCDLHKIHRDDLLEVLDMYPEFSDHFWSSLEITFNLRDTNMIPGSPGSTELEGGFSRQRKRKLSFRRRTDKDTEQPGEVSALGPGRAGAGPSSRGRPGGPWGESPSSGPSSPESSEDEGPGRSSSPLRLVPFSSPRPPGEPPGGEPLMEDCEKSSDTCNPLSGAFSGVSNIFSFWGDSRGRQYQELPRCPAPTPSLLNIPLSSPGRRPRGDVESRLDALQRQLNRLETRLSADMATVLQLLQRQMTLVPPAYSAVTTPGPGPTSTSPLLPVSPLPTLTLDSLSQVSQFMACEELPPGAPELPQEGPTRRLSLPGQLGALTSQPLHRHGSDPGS

Row | SMILES | hERG current change (%, negative = inhibition) at 10uM [%]
1 | CCOC(=O)/C(C#N)=N/Nc1ccccc1C(=O)O | 22.6
2 | O=C(CC1Sc2ncnn2C1=O)Nc1ccccc1 (centres unmarked) | -1.91
3 | O=C(Nc1ccccc1N1CCOCC1)c1cccnc1Cl | -0.807
4 | CC(OC(=O)Cc1ccccc1[N+](=O)[O-])C(=O)Nc1ccc(Cl)cn1 (centres unmarked) | -34.1
5 | Cc1cccc(NC(=O)COc2ccccc2C)n1 | 7.83
6 | CCCCc1nc(SCC(=O)N2CCCC2)c2c(=O)n(C)c(=O)n(C)c2n1 | -23
7 | COc1ccc(C2=NC(=O)NC2c2ccc(OC)cc2)cc1 (centres unmarked) | -29.4
8 | CCOC(=O)NCc1ccccc1 | -6.72
9 | COc1ccc(C2CCN(CC(=O)N(C)C)CC2O)cc1 (centres unmarked) | 33.3
10 | COC(=O)c1ccccc1NC1=C/C(=N\S(=O)(=O)c2ccc(C(=O)O)cc2)c2ccccc2C1=O | -15.5
11 | O=C(CC1OCC2CCCN2C1=O)Nc1ccc([N+](=O)[O-])cc1 (centres unmarked) | -7.77
12 | C/C(=N/NC(=O)c1ccc(C)s1)c1cccc(NC(=O)COc2ccc(Cl)cc2C)c1 | 3.47
13 | CCCN(C#N)c1nc(NCC)nc(NC(C)C)n1 | -10.2
14 | COc1ccccc1N(C)S(=O)(=O)c1ccc(C(=O)N2CCC(C(N)=O)CC2)cc1 | 6.81
15 | CC1=C(C(=O)Nc2ccccn2)C(c2ccc(Br)cc2)n2ncnc2N1 (centres unmarked) | -22.5
16 | COc1cccc(-c2csc(N3CCN(CC(=O)NNC(=O)c4ccc(Br)cc4)CC3)n2)c1 | -1.9
17 | CN(C)C(=O)c1cc(C(=O)c2ccc(C(F)(F)F)cc2F)c[nH]1 | -6.29
18 | CCc1c(C)nc(SCC(=O)c2cccs2)c(C#N)c1C | -8.42
19 | Cc1ccc(CN2CC(C(=O)Nc3ccccc3N3CCCC3)CC2=O)cc1 (centres unmarked) | -30.5
20 | NC(=O)C1CCN(C(=O)COc2ccc(S(=O)(=O)NC3CCCC3)cc2)CC1 | 27
21 | CCCNC(=O)c1cc(Cl)c(NC(=O)C2=CSCCO2)cc1OC | 16.5
22 | CC(OC(=O)c1cccc(-n2cnnn2)c1)C(=O)Nc1ccc(F)cc1 (centres unmarked) | -22.8

Row | SMILES | hERG current change (%, negative = inhibition) at 10uM [%]
23 | NC(=O)c1ccc(Cn2c(C(=O)c3cc(Cl)c(N)c(Cl)c3)c3ccccc3[n+]2[O-])cc1 | -10.4
24 | CC(=O)Nc1ccc(S(=O)(=O)c2cc(O)ccc2O)cc1 | 17
25 | COc1ccc(OC)c2sc(NNC(=O)COc3ccccc3)nc12 | 13.8
26 | O=C(CSc1nccc(=O)[nH]1)N1CCCc2ccccc21 | 11.4
27 | O=C(c1sc2cc(F)ccc2c1Cl)N1CCN(c2ccccc2)CC1 | 4.93
28 | CC(C)CCNC(=O)CN(Cc1ccc(F)cc1)C(=O)CCC(=O)Nc1ccccn1 | -28.1
29 | COc1ccc(NC(=S)Nc2nc(CC(=O)Nc3ccccc3OC)cs2)cc1 | 0.296
30 | CCn1c(SCC(=O)NCc2ccccc2)nc2nc3c(cc2c1=O)CCCC3 | -32.4
31 | COc1ccc(-c2nnc(SCC(=O)NC3CCCC3)n2C)cc1 | 13.1
32 | CCOC(=O)c1c(C)[nH]c(C(=O)Cn2nnc(-c3ccccc3)n2)c1C | 6.93
33 | COc1ccc(COC(=O)c2ccc(Cl)c(S(=O)(=O)N3CCOCC3)c2)cc1F | -48.8
34 | O=C(Nc1ccccc1C(=O)O)c1cccc(C(=O)Nc2ccccc2C(=O)O)c1 | 23.7
35 | c1cc(CNc2ccc3c(c2)OCO3)ccn1 | -4.39
36 | S=C(NCC1CCCCC1)Nc1cccnc1 | -12.5
37 | CCOC(=O)C1CCCN(C(=O)CS(=O)(=O)Cc2ccccc2)C1 (centres unmarked) | 15.3
38 | CC1(C)Oc2ccc3ccc(=O)oc3c2/C(=N/O)C1=O | 20.4
39 | CCCc1[nH]c(=O)c(C#N)c2c1CCCC2 | 25
40 | COCCn1c(=S)[nH]c2cc(C(=O)N3CCc4ccccc43)ccc2c1=O | 12.9
41 | CCCCCCCCN=Cc1c(O)[nH]c(=O)[nH]c1=O | 4.9
42 | O=C(NC1CCCC1)C(c1ccncc1)N(Cc1cccs1)C(=O)c1csnn1 (centres unmarked) | -14.5
43 | CCOC(=O)c1cc(-c2ccccc2)nn1CC1CC(c2ccc(Cl)cc2)=NO1 (centres unmarked) | -16.2
44 | Cc1cc(NC(=O)CN2C(=O)NC(C)(c3ccc(OC(F)F)cc3)C2=O)no1 (centres unmarked) | -9.97
